Where “and” joins values, the source holds several entries; their conditions need not be identical. Equal values may be shown once. Each block holds one binder with its values, some of them ahead of it.
How the values were obtained:
[1] = target: T1, murine GPC3-his protein (Sino Biological, Cat. No. 50989-M08B) (murine, UniProt Q8CFZ4 25-558); experiment: ELISA, coated murine GPC3-His;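 note: antigen coated on plates at 1 µg/mL, test antibody bound for 2 h at 37 °C, detected with HRP-conjugated secondary antibody and TMB substrate after acid stop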
T1 construct: Bought protein; also called murine GPC3 protein

murine GPC3-His protein [2] = target: T2, murine GPC3-His protein (murine, UniProt Q8CFZ4 25-558, limits assumed); experiment: SPR, antibody captured on Protein A chip, murine GPC3-His injected
T2 construct: bought protein; also called murine GPC3 protein

murine GPC3-his protein [3] = target: T3, murine GPC3-his protein (murine, UniProt Q8CFZ4 25-558, limits assumed); experiment: ELISA, murine GPC3-his coated; antibody 66.66 nM
T3 construct: Bought protein; also called mouse GPC3 protein; murine GPC3 protein; not shown: His tag

murine GPC3-his protein [4] = target: T3, murine GPC3-his protein; experiment: ELISA, murine GPC3-his coated; antibody 0.0008 nM
murine GPC3-his protein [5] = target: T3, murine GPC3-his protein; experiment: ELISA, murine GPC3-his coated; antibody 0.53 nM
GPC3 on HepG2 cells = target: T4, GPC3 on HepG2 cells (human, UniProt P51654 25-554); experiment: FACS on HepG2 cells
T4 construct: whole, on cells; also called glypican-3

murine GPC3-his protein [6] = target: T3, murine GPC3-his protein; experiment: ELISA, murine GPC3-his coated; antibody 0.02 nM
murine GPC3-his protein [7] = target: T3, murine GPC3-his protein; experiment: ELISA, murine GPC3-his coated; antibody 2.67 nM
murine GPC3-his protein [8] = target: T3, murine GPC3-his protein; experiment: ELISA, murine GPC3-his coated; antibody 0.11 nM
murine GPC3-his protein [9] = target: T3, murine GPC3-his protein; experiment: ELISA, murine GPC3-his coated; antibody 13.33 nM
murine GPC3-his protein [10] = target: T3, murine GPC3-his protein; experiment: ELISA, murine GPC3-his coated; antibody 0.004 nM

T3 sequence (Q8CFZ4 25-558 limits assumed): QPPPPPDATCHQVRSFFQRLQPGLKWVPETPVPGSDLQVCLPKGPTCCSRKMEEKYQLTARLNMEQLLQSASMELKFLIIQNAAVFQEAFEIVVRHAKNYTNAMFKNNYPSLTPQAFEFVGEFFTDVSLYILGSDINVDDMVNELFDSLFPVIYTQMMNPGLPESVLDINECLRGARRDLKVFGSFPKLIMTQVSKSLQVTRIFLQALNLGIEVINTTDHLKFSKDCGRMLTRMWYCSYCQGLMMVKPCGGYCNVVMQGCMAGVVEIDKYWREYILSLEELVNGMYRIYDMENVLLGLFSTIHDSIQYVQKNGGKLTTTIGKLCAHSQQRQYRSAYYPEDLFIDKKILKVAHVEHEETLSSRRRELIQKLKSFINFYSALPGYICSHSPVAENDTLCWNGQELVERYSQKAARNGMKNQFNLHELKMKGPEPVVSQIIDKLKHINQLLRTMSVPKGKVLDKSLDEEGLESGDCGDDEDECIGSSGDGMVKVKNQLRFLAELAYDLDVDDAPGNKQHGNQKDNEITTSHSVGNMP
murine GPC3-His protein, sequence (Q8CFZ4 25-558 limits assumed): as above

B2: T2-23 scFv-hFc (Fc fusion)
scFv: QSALTQPPSASGSPGQSVTISCTGTSSDVGGYNYVSWYQQYPGKAPKLLIYGNSNRPSGVPDRFSGSKSGTSASLAITGLQAEDGADYYCQSYDSSLRVVFGGGTKVTVLGGGGGSGGGGSGGGGSQVQLQESGGGLVQPGRSLRLSCAASGFTFSSYAMHWVRQAPGKGLEWVSAISSSGRSTYYADSVEGRFTISRDNSKNTLYLQMNSLRAEDTAVYYCAKDRRGSHADALNVWGQGTLVTVSS[human IgG1 Fc with changes not shown]
OD450 at 0.0001 nM antibody [1]: 0.05 OD450 nm
OD450 at 0.001 nM antibody [1]: 0.07 OD450 nm
OD450 at 0.01 nM antibody [1]: 0.16 OD450 nm
OD450 at 0.1 nM antibody [1]: 0.42 OD450 nm
OD450 at 1 nM antibody [1]: 0.73 OD450 nm
OD450 at 10 nM antibody [1]: 1.24 OD450 nm
OD450 at 100 nM antibody [1]: 1.34 OD450 nm

B3: T2-23 scFv-hFc (Fc fusion)
scFv: QSALTQPPSASGSPGQSVTISCTGTSSDVGGYNYVSWYQQYPGKAPKLLIYGNSNRPSGVPDRFSGSKSGTSASLAITGLQAEDGADYYCQSYDSSLRVVFGGGTKVTVLGGGGGSGGGGSGGGGSQVQLQESGGGLVQPGRSLRLSCAASGFTFSSYAMHWVRQAPGKGLEWVSAISSSGRSTYYADSVEGRFTISRDNSKNTLYLQMNSLRAEDTAVYYCAKDRRGSHADALNVWGQGTLVTVSS[human IgG1 Fc with changes not shown]
notes: control antibody, made as scFv-human IgG1 Fc
Kd (murine GPC3-His protein [2]): 0.134 nM
koff (murine GPC3-His protein [2]): 6.75e-05 s⁻¹
kon (murine GPC3-His protein [2]): 505000 M⁻¹ s⁻¹

Now from value to binder:

OD450 at 0.0001 nM antibody [1]: 0.05 OD450 nm
OD450 at 0.001 nM antibody [1]: 0.05 OD450 nm
OD450 at 0.01 nM antibody [1]: 0.05 OD450 nm
OD450 at 0.1 nM antibody [1]: 0.05 OD450 nm
OD450 at 1 nM antibody [1]: 0.05 OD450 nm
OD450 at 10 nM antibody [1]: 0.05 OD450 nm
OD450 at 100 nM antibody [1]: 0.08 OD450 nm
B1: Y035 scFv-hFc (Fc fusion)
scFv: DIVMTQTPLSLPVITGEPASISCRSSQSLVHSNGNTYLQWYLQKPGQSPQLLIYKVSNRFSGVPDRFSGSGSGTDFTLKISRVEAEDVGVYYCSQSIYVPYTFGQGTKLEIKRGGGGSGGGGSGGGGSEVQLVQSGAEVKKPGASVKVSCKASGYTFSDYEMHWVRQAPGQGLEWMGAIHPGSGDTAYNQRFKGRVTITADKSTSTAYMELSSLRSEDTAVYYCARFYSYAYWGQGTLVTVSA[human IgG1 Fc with changes not shown]

OD450 nm (murine GPC3-his protein [3]): 0.095
OD450 nm (murine GPC3-his protein [4]): 0.065
OD450 nm (murine GPC3-his protein [5]): 0.051
EC50 (GPC3 on HepG2 cells): 2.42 nM and 1.36 nM
OD450 nm (murine GPC3-his protein [6]): 0.052
OD450 nm (murine GPC3-his protein [7]): 0.107
OD450 nm (murine GPC3-his protein [8]): 0.059
OD450 nm (murine GPC3-his protein [9]): 0.078
OD450 nm (murine GPC3-his protein [10]): 0.059
B4: GC33 scFv-hFc (Fc fusion)
scFv: QVQLVQSGAEVKKPGASVKVSCKASGYTFTDYEMHWVRQAPGQGLEWMGALDPKTGDTAYSQKFKGRVTLTADKSTSTAYMELSSLTSEDTAVYYCTRFYSYTYWGQGTLVTVSSGGGGSGGGGSGGGGSDVVMTQSPLSLPVTPGEPASISCRSSQSLVHSNRNTYLHWYLQKPGQSPQLLIYKVSNRFSGVPDRFSGSGSGTDFTLKISRVEAEDVGVYYCSQNTHVPPTFGQGTKLEIK[human IgG1 Fc with C220S (EU numbers) not shown]

Source: US20260116991A1 (HAINAN SIMCERE ZAIMING PHARMACEUTICAL, published 2026)
